# Laboratory results reported in the supplement of paper PMC11417369.
# ± gives the standard deviation of the averaged measurements. The list shows a part of the results.
# Tested on: PfAP2-EXP AP2 domain (GST-tagged)
# Assay: gcPBM binding intensity (ln(normalized median fluorescence intensity)); higher = stronger DNA binding
# Summary of the method: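 DNA-binding domains from P. falciparum, fused to GST and produced in E. coli, were put on an Agilent 4 × 180k double-stranded probe array for 1 h in 1× PBS holding 1% milk, 0.2 mg/ml BSA, 0.5% salmon testes DNA and 0.03% Triton X-100. Probes were primer-extended, 36 bp long and drawn from intergenic genomic regions, with negative controls included. After Alexa488 anti-GST antibody detection and a 488 nm scan, binding intensity was set as the highest Masliner-normalised natural-log median intensity across replicate spots of either probe orientation.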
row,Sequence,gcPBM binding intensity (ln)
1,TTTTTTAAATATATATGTACATATATCTATATATAT [XGTACX_site3461],8.62 ± 0.11
2,TTTATAATTTATAGGCGGACAGGAAAATTTTATAAA [XGTACX_site6955],8.81 ± 0.37
3,TTTTTCTTTTTTTGTTGTACATTTTGTAATATTTAC [XGTACX_site4102],8.78 ± 0.55
4,TACAGGAATATTTTTACACACTAAAAGTTATAAACT [CACACA_site6876],8.17 ± 0.38
5,TGAACAGGTCATAATTTACACACTATATATTTTATT [CACACA_site8123],8.51 ± 0.52
6,AAGAAAAATTCTTCACGTACAAATAATTATATATAT [XGTACX_site7217],8.55 ± 0.2
7,TATAATATATATGTATGTACGTATGTATGATTTTGT [XGTACX_site1164],8.63 ± 0.36
8,ATATACATTTTAAATTTTAATGTAACCCATGGGAGA [CACACA_negctrl_site588],8.46 ± 0.46
9,TGAACCCACAAATCACGTACATATATATACACGTGT [XGTACX_site7739],8.49 ± 0.31
10,TTTAACAACTATTTCTGTACACATTTTTATATAATT [XGTACX_site4917],8.88 ± 0.43
11,TGTACGAGTCGTAGAGTGCAGTCTGGAGAAACGTAC [GTGCAC_site9682],9.2 ± 0.36
12,TATATACGTAATAGTAGTACTTTAAAATGCGGAAAT [XGTACX_site4597],9.14 ± 0.21
13,GATAGACACGTGCACACATGCAATACTTTATTCAGT [TGCATGCA_site778],9.37 ± 0.11
14,AAAAAAGATATATAAACACACATATTTATATACACA [CACACA_site6866],8.28 ± 0.32
15,ATTTATATTATGAGGAGTACAATACTTATAGATGTA [XGTACX_site7510],8.46 ± 0.32
16,ATAAATAACTTTTAAATACACACGTAAAATATATTG [CACACA_site3302],8.64 ± 0.33
17,ATACCATATAATTATGTGAGAAAATATAATATTCAT [CACACA_negctrl_site310],8.48 ± 0.34
18,ATTTTCTTAAATAAATGTACATGGCATTAAAAGTAA [XGTACX_site5119],8.73 ± 0.33
19,TATTTGTATATTCATTCCTGTATTCCCTTTTTTGTA [CACACA_negctrl_site1236],8.88 ± 0.61
20,ATATATATATATGTATGTACATAATATTTTTTTTAT [XGTACX_site5551],10 ± 0.24
21,TGTACGTTTTTTAACACACACACAAAAAAAAAAAAA [CACACA_site6006],8.39 ± 0.51
22,AAAAAAAAAAAAAATACACACAAATAATAAAAATAA [CACACA_site1431],8.45 ± 0.56

row,Sequence,gcPBM binding intensity (ln)
1,ACTGTACTATAAAATACACACATATAAATATAAATA [CACACA_site3009],8.59 ± 0.22
2,TATTTTAGAGAAAAAAATAAATTACAAAATGTTAGG [CACACA_negctrl_site1645],8.35 ± 0.35
3,TTAAATATCCATATTTCACACATTTCGATATATATA [CACACA_site4208],8.38 ± 0.45
4,TATAATATTATATAATGTACGCATTTATTATTTAAA [XGTACX_site8326],8.26 ± 0.26
5,GAATGTAAATATTAAAGTACACAGAATATATCTTCA [XGTACX_site8149],8.49 ± 0.4
6,CCTAAATAAATGGACACACACATATTTATATTTATA [CACACA_site6789],8.46 ± 0.45
7,ATAATGTCATAATTATATCCTTTGGCATAAAATAAA [XGTACX_negctrl_site574],8.3 ± 0.45
8,AAATAAAATCATGAATGTACACAAAAATTATTGCAA [XGTACX_site5691],8.86 ± 0.42
9,TTTGAAGGAAGGGGGGGAGGGGCCATAACAAAGGAA [GTGCAC_negctrl_site408],10.13 ± 0.035
10,ATATATTTATATATTGCACACAAAAAAAAAAAAAAA [CACACA_site8468],8.61 ± 0.24
11,AACATTATAAGACACACACACACATATATAAATATA [CACACA_site6622],8.65 ± 0.58
12,AAATAAGAACATAGAATGCACTTTTTTTTTTTTTCC,8.14 ± 0.12
13,AAATATAATAAAATGACACACGCATATATATATATA [CACACA_site8900],10.2 ± 0.41
14,ATATATCCAAATAGATTACATATATATATATAGATA [TGCATGCA_negctrl_site277],8.32 ± 0.21
15,AATATATAAGTCTACTGTACCCAAAATAAAATTTAT [XGTACX_site8727],8.45 ± 0.34
16,GTATATATACATAAATGTACATATATATAAAAAATG [XGTACX_site3271],8.55 ± 0.33
17,TATTGCCCTTGACACACACACATATAAATAAATATA [CACACA_site7220],8.63 ± 0.37
18,AAATATGTATATATATATATATATATATATATATAT [GTGCAC_negctrl_site335],10 ± 0.4
19,TTAAACCGTGGGAGCACACACACACCCAGACACATA [CACACA_site4337],8.44 ± 0.48
20,TAAGGTTAAATAATATGTACATATTATTATATATAT [XGTACX_site6953],8.74 ± 0.085
21,TTATGGGACTCAAATACATGCAAAAATATTTTTAAG [TGCATGCA_site559],9.02 ± 0.31
22,CACGTGTAAATAGTTTTACAATATCTCGATATGTAT [CACACA_negctrl_site785],8.45 ± 0.36

row,Sequence,gcPBM binding intensity (ln)
1,TTATATGAAAATTATTGTACAATCTATAAAAAAAAT [XGTACX_site4194],8.73 ± 0.46
2,TTACTATGTAAACACACATGCAATATATGTTAAGCC [TGCATGCA_site253],8.79 ± 0.2
3,GGATATATGAAACATATTGAAAAACCGTTTAGTACA [CACACA_negctrl_site132],8.63 ± 0.31
4,TAATTTTTGTAAACAGTCATGGATTCAAAAAAAAAA [CACACA_negctrl_site593],8.26 ± 0.44
5,GTAATTATATACATACGTACATACACATATGTATAT [XGTACX_site4149],8.56 ± 0.33
6,AAGGAAATAAGAAAAAGTACACATAAGTATATAACA [XGTACX_site1173],8.94 ± 0.42
7,TAATAATCAAACTATACACACATAAATAAATATATA [CACACA_site156],8.57 ± 0.26
8,AAAATATATCAAAATAGTACATAATTTTTTAAGAAT [XGTACX_site3515],8.45 ± 0.37
9,AAAAATGTGCACACGCGTACACACAAAAAAAGAAAA [XGTACX_site4097],9.05 ± 0.28
10,GTAGTAATAAATCTAGTGCATTATATATAACAAAAA [GTGCAC_site9803],8.81 ± 0.3
11,TTTTTTTCTTTTTTTTGTACTCATACATACTATCAT [XGTACX_site607],8.64 ± 0.46
12,AATAAAGCAATAAATACACACATATATATATATATA [CACACA_site2934],10.1 ± 0.45
13,TATATAAAAAATAGGTGGTCAACTTAAATATTTTAT [XGTACX_site4495],8.4 ± 0.34
14,AGTTATGCATCTTAGGTGCTATGCCCAATTTATTTT [GTGCAC_site9977],8.6 ± 0.33
15,AACTTACTCTTTACAAGTACGTAAAAGAAATAGAAA [XGTACX_site1782],8.51 ± 0.41
16,TTGCCTTAAAAAGGAACACACATGCTTTTTTTAGTT [CACACA_site938],8.37 ± 0.45
17,AAAAAAAAAAAAAATGCACACATATATTTCCATATA [CACACA_site8416],8.56 ± 0.2
18,ACAAAGTAAAATAATGCATGTAGGTATACATAATTA [TGCATGCA_site607],8.59 ± 0.4
19,GTGCTAAAAGTATATGCACACACATATATATGCACA [CACACA_site8472],8.88 ± 0.26
20,AATATTTTATATAAATGTACATTTATGAATAATATA [XGTACX_site8477],8.46 ± 0.42
21,ACATATTTCCAATAATGTACATACAAAATAAGAATG [XGTACX_site2659],8.71 ± 0.38
22,TGTTCATTTATTTACTTACACACTTTATATATGTGG [CACACA_site1410],8.79 ± 0.53

row,Sequence,gcPBM binding intensity (ln)
1,TAAAAGTAGATATATACACACATAAATATAGATGTA [CACACA_site6457],8.33 ± 0.31
2,AGGAAAAAAAAAATGTGTACTTAAAAAAAAAAAATT [XGTACX_site1471],8.45 ± 0.35
3,AATAAATAAATATATACACACATATATCTGTACATA [CACACA_site9034],8.54 ± 0.49
4,TTTTATCATATTTATTGTACACATAATATACATATC [XGTACX_site1145],8.83 ± 0.28
5,CGTTTATATTTTAACTGTACTCAAAAAGTGCATTGT [XGTACX_site6072],8.53 ± 0.099
6,TTTTATATATTATATACACACATATATATATATATA [CACACA_site2999],10.2 ± 0.32
7,TGTATGTTTATTTATCGTACATATATATATATATAT [XGTACX_site7315],10.2 ± 0.18
8,TAAATTATAATAAATACACACAAATTATAATTCTAT [CACACA_site3942],8.52 ± 0.45
9,CATTTTATAAAAAGCACACATATAGTTATATGCACA [CACACA_site3691],8.8 ± 0.12
10,TATATATATATACATTGTACATTATTGATTATAACA [XGTACX_site1678],10 ± 0.17
11,TTTGAATCCTTATATACACACATTATATAATATTAT [CACACA_site4472],8.73 ± 0.35
12,TTTATTCTCCGACACACACACATATATTTATTTATA [CACACA_site7377],8.85 ± 0.48
13,AAATTAGAATTAGGAACACACATATTTATATTTATA [CACACA_site7450],8.33 ± 0.44
14,ATATATAAAAAATGTGGTACATTCATTTATTATACA [XGTACX_site3495],8.2 ± 0.29
15,TTAGGACAAAAAAAAATAAAAATAAAATAAAATAAT [CACACA_negctrl_site1613],8.55 ± 0.44
16,TATTAAATGAAACAAACACACATAGCCTTTAAATAT [CACACA_site1560],8.61 ± 0.57
17,ATTTTTTTTTTTATAGTGGAACCACATTTGCCATTT [CACACA_negctrl_site1247],8.71 ± 0.43
18,ATATATATATCATATTGTACATATTATTGTATAATC [XGTACX_site5020],9.24 ± 0.19
19,ATAAAATAAAACAGAGCACACATTTTATTTACATTC [CACACA_site696],8.54 ± 0.59
20,AAATTATATATATTTACATGCAATATAATGAAATAA [TGCATGCA_site229],8.84 ± 0.35
21,ATATAAACATGTTTGTGTACGTAATATGAAAAATAA [XGTACX_site8157],9.04 ± 0.35
22,GTATGTATAATATACACACTCACAAGCATTCAAATA [CACACA_site267],8.4 ± 0.45
